Test results published in PubChem BioAssay AID1476 (National Center for Advancing Translational Sciences (NCATS), 2009).
The whole screen tested about 200,000 compounds, of which about 4,500 (2.2%) were called active. Inconclusive means that the source gave no clear call. Such entries were picked first, then a sample of the others. The call rests on the fitted dose curve; in most records, active means well fitted inhibition curve with a large enough effect; inconclusive means small, poorly fitted or top-dose-only effect, or effect the other way; inactive means flat fitted curve, though single readings scatter. Potencies beside an inconclusive call are fits to weak or partial responses and may not hold up.

Target: Cruzipain (Trypanosoma cruzi) (UniProt P25779)
Assay: qHTS Assay for Promiscuous and Specific Inhibitors of Cruzain (without detergent); further: nearly all actives have a fitted effect of over 40% in size;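 on max response, negative = inhibition: plate controls were enzyme without inhibitor for no effect and buffer without enzyme for full effect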
Settings: purified cruzain, Z-FR-AMC fluorescence, no detergent
Summary of the method: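 Detergent-free condition (0.00005% Triton X-100) in acetate buffer pH 5.5 with DTT. 1.5 nM enzyme and compound were pre-mixed 15 min, then 2 uM Z-FR-AMC substrate added; reaction progress from fluorescence change between first and third reads (60 s).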
Potency means the concentration at half of the fitted maximal effect; tags describe the fitted curve by direction and shape.

UniProt P25779, sequence (P25779 whole entry, looked up): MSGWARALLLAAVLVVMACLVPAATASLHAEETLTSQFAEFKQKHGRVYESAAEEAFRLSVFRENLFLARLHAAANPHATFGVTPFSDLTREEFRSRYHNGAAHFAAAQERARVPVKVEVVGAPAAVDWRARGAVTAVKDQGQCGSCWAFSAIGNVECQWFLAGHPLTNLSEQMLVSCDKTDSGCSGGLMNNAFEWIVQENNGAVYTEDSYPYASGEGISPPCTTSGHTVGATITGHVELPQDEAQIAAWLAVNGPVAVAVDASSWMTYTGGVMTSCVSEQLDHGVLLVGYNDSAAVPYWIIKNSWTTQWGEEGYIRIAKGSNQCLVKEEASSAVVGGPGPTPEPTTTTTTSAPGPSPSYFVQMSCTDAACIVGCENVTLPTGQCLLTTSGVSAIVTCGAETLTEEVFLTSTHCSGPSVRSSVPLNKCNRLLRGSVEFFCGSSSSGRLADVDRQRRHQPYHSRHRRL

Row | SMILES | Potency | max response, negative = inhibition
1 | C=CCn1c(SCC(=O)Nc2ccccc2)nnc1-c1cccc(S(=O)(=O)N2CCOCC2)c1 | inconclusive: 31.6 µM [activator, single point] | 
2 | CCN(CC)C(=O)c1sc2c(c1C)c(=O)n(-c1ccc(Cl)c(Cl)c1)c(=O)n2Cc1cc(=O)n2ccccc2n1 | inconclusive: 5.01 µM [activator, single point] | 
3 | O=S(=O)(c1cccs1)N1CN(Cc2ccccc2)c2nc3ccccc3nc21 | inconclusive: 31.6 µM [inhibitor, single point] | 
4 | CC(=O)Nc1ccc(S(=O)(=O)N2CCC(c3nnc(-c4ccc(C)cc4)o3)CC2)cc1 | inconclusive: 39.8 µM [activator, single point] | 
5 | CCN(c1ccccc1)S(=O)(=O)c1ccc(NC(=S)NC(=O)c2cccs2)cc1 | inconclusive: 31.6 µM [inhibitor, single point] | 
6 | CSc1cccc(Nc2cc(C(=O)NCCc3ccc(Cl)cc3)c3ccccc3n2)c1 | inconclusive: 39.8 µM [inhibitor, single point] | 
7 | Cc1ccc(-n2c(C)cc(/C=c3/sc4nc5ccccc5n4c3=O)c2C)cc1 | active: 10 µM | 
8 | Cc1ccc(CNC(=O)CCc2c(C)c3ccc(O)c(C)c3oc2=O)cc1 |  | inactive: -12.5%
9 | O=C1CCCc2cc(S(=O)(=O)N3CCCC(C(=O)Nc4ccc(F)c(Cl)c4)C3)ccc2N1 (stereo not given) | inconclusive: 20 µM [inhibitor, partial curve] | 
10 | O=C(Nc1ccccc1)Nc1ccc2snnc2c1 | inconclusive: 7.94 µM [inhibitor, partial curve] | 
11 | Cc1[nH]c2ccccc2c1C(=O)COC(=O)CCS(=O)(=O)c1ccccc1Cl |  | inactive: -7.93%
12 | Cc1ccc2c(CC(=O)Nc3ccc(S(=O)(=O)N4CCCCC4C)cc3)coc2c1 (stereo not given) | active: 25.1 µM | 
13 | Cc1ccc(C(=O)NC(=S)Nc2cccc3c(C)cc(C)nc23)cc1 | inconclusive: 39.8 µM [inhibitor, single point] | 
14 | COc1cc2c(cc1OC)-c1cc(OCc3cccnc3)nc(=O)n1CC2 | inconclusive: 31.6 µM [inhibitor, single point] | 
15 | CCCCOc1ccc(C2=NC(c3cccs3)=Nc3ccc(CC)cc3N2)cc1 | inconclusive: 39.8 µM [inhibitor, single point] | 
16 | COc1cccc(/C=c2\sc3nc(-c4cccs4)nn3c2=O)c1OC | inconclusive: 39.8 µM [activator, single point] | 
17 | COc1ccc(CC(=O)Nc2ccc(-c3nc4cc(C)ccc4o3)c(O)c2)cc1OC | inconclusive: 12.6 µM [inhibitor, partial curve] | 
18 | Cc1cc(C)c2nc(N3CCC(C(=O)N4CCN(C(=O)c5ccco5)CC4)CC3)sc2c1 | inconclusive: 39.8 µM [activator, single point] | 
19 | Cc1cc2cc(CCNC(=O)c3ccc(C)c([N+](=O)[O-])c3)c(=O)[nH]c2cc1C | inconclusive: 39.8 µM [activator, single point] | 
20 | CC1(C)Cc2c(c(N3CCOCC3)nc3snc(N)c23)CO1 | inconclusive: 25.1 µM [inhibitor, single point] | 
21 | CSc1cc(-c2ccccc2)n(Cc2c(Cl)cccc2Cl)c(=O)c1C#N | active: 10 µM | 
22 | Cc1nn2c(=O)cc(COC(=O)c3cccc(NC(=O)COc4ccccc4Cl)c3)nc2s1 | inconclusive: 6.31 µM [activator, single point] | 

Row | SMILES | Potency | max response, negative = inhibition
23 | C=CCCCC |  | inactive: 1.14%
24 | COCCNc1nc(C)nc2c1nc(-c1ccccc1)n2CCCN1CCCCC1C (stereo not given) |  | inactive: 2.19%
25 | O=C(COc1ccc(C(=O)Nc2ccc(Cl)cc2)cc1)NCc1ccccc1 | inconclusive: 39.8 µM [inhibitor, single point] | 
26 | CCC(c1nnnn1CCOC)N1CCN(c2cccc(C(F)(F)F)c2)CC1 (stereo not given) | inconclusive: 25.1 µM [activator, single point] | 
27 | O=[N+]([O-])c1ccc(N/N=C/c2ccc[nH]2)cc1 | active: 25.1 µM | 
28 | Cc1snc(SCC(=O)N/N=C(\N)COc2cccc(C(F)(F)F)c2)c1C#N | inconclusive: 39.8 µM [inhibitor, single point] | 
29 | COC(=O)[C@@]1(Cc2ccc(F)cc2)[C@H]2c3cc(C(=O)N4CCCC4)n(Cc4ccccn4)c3C[C@H]2CN1C(=O)c1ccccc1 | inconclusive: 20 µM [activator, partial curve] | 
30 | O=C(COC(=O)c1c2ccccc2cc2ccccc12)Nc1ncc(C(F)(F)F)cc1Cl | inconclusive: 39.8 µM [inhibitor, single point] | 
31 | CCn1c(=O)c2cc(C(=O)NCCCOC)sc2c2ccccc21 | inconclusive: 39.8 µM [activator, single point] | 
32 | CC1CCN(c2ccc(NC(=S)NC(=O)c3ccc(-c4cccc([N+](=O)[O-])c4)o3)cc2)CC1 | inconclusive: 20 µM [inhibitor, single point] | 
33 | CN1CCN(c2ncc3nc(-c4ccccc4)c(=O)n(C4CC4)c3n2)CC1 | active: 25.1 µM | 
34 | COc1cccc(N2CCN(C(=O)CCCn3c(=O)[nH]c4ccc(Br)cc4c3=O)CC2)c1 | inconclusive: 39.8 µM [activator, single point] | 
35 | Cc1ccc(Nc2c(-c3ccc(Cl)cc3)nc3sccn23)c(C)c1 | active: 31.6 µM | 
36 | Cc1nc2cc(C(=O)OCC(=O)Nc3ccc(C#N)cc3)ccc2n1-c1ccccc1 | inconclusive: 31.6 µM [inhibitor, single point] | 
37 | Cc1ccc(CSc2nnc(-c3cccc(S(=O)(=O)N4CCOCC4)c3)n2CC(C)C)cc1 | inconclusive: 39.8 µM [activator, single point] | 
38 | Cc1ccc(C)c(N2CCN(C(=O)CCCN3C(=S)NC(C)(C)CC3C)CC2)c1 (stereo not given) | inconclusive: 25.1 µM [activator, single point] | 
39 | COCCOC(=O)C1=C(C)N=C2SCCC(=O)N2C1c1ccc(C(=O)OC)cc1 (stereo not given) | inconclusive: 25.1 µM [activator, single point] | 
40 | O=C(CCSc1nc2ccccc2s1)N/N=C/c1c(O)ccc2ccccc12 | active: 12.6 µM | 
41 | Cc1ccc(NC(=O)COC(=O)c2ccccc2Nc2ccccc2)cc1 | inconclusive: 39.8 µM [inhibitor, single point] | 
42 | CCn1cnc2c1c(=O)n(CC(=O)N1CCc3ccccc31)c(=O)n2Cc1ccccc1 | inconclusive: 39.8 µM [activator, single point] | 
43 | O=c1ccc2cc(S(=O)(=O)NCc3ccc(Br)cc3)ccc2[nH]1 | inconclusive: 25.1 µM [inhibitor, single point] | 
44 | CCOC(=O)c1[nH]c2ccc(Br)cc2c1NC(=O)CNC | inconclusive: 31.6 µM [activator, single point] | 

Row | SMILES | Potency | max response, negative = inhibition
45 | c1c[nH]c(CN2CCOCC2)n1 |  | inactive: 3.33%
46 | O=C1C(NS(=O)(=O)c2cccs2)=C(N2CCN(c3cccc(Cl)c3)CC2)C(=O)c2ccccc21 | active: 12.6 µM | 
47 | CCOC(=O)c1ccc(CN(Cc2ccc(Cl)cc2Cl)S(=O)(=O)c2ccc(F)c(C)c2)cc1 |  | inactive: 8.74%
48 | COc1ccc(CCNc2nc3ccccc3n3nnnc23)cc1OC |  | inactive: -0.0309%
49 | CCc1ccc2nc(N(Cc3cccnc3)C(C)=O)sc2c1 | inconclusive: 31.6 µM [activator, single point] | 
50 | CCc1ccc2[nH]c(O)c(N=Nc3nc(-c4ccccc4)cs3)c2c1 | active: 20 µM | 
51 | COc1ccc(CC(=O)Nc2ccc(-c3noc(-c4ccc(Cl)cc4)n3)cc2)cc1 | active: 3.98 µM | 
52 | CCOCCCNC(=O)C(c1ccc(Cl)cc1)N(Cc1cccs1)C(=O)CNC(C)=O (stereo not given) | inconclusive: 31.6 µM [activator, single point] | 
53 | Cc1ccc(/C=C2\SC(=S)N(C(Cc3ccccc3)C(=O)O)C2=O)cc1 (stereo not given) | inconclusive: 3.98 µM [activator, single point] | 
54 | COc1cccc(-c2nc(CS(=O)(=O)CC(=O)NCCC(C)C)c(C)o2)c1 | inconclusive: 39.8 µM [activator, single point] | 
55 | O=C(Nc1ccc(Br)cc1)c1ccc(F)c(S(=O)(=O)N2CCCc3ccccc32)c1 | inconclusive: 39.8 µM [inhibitor, single point] | 
56 | CC(C)Cn1c(=O)c2sccc2n2c(CCCC(=O)NCCc3ccc(Cl)cc3)nnc12 |  | inactive: 17.9%
57 | C=CCOC(=O)C1=C(C)NC(SCC(=O)N(CC)CC)=C(C#N)C1c1ccco1 (stereo not given) | inconclusive: 39.8 µM [activator, single point] | 
58 | CCOC(=O)c1cc2sc(C)cc2n1CC(=O)N1CCN(C(=O)c2ccco2)CC1 | inconclusive: 31.6 µM [activator, single point] | 
59 | COn1c2c(c3c4no[n+]([O-])c4ccc31)CCCC2 | active: 20 µM | 
60 | CCCC1C(C#N)=C(N)Oc2c1c(=O)oc1ccccc21 (stereo not given) | inconclusive: 31.6 µM [inhibitor, single point] | 
61 | O=[N+]([O-])c1cc2c(c(CSc3nnc(Nc4ccccc4)s3)c1)OCOC2 | inconclusive: 39.8 µM [inhibitor, single point] | 
62 | CCCCCNC(=O)C(C#N)c1nc2ccccc2nc1N1CCCC1 (stereo not given) | active: 12.6 µM | 
63 | COc1ccc(C2CC(=O)N(Cc3ccc(F)cc3)c3ccccc3S2)cc1OC (stereo not given) | inconclusive: 25.1 µM [activator, single point] | 
64 | CCCn1c(C)c(C(=O)c2ccc3ccccc3c2)c2ccccc21 | inconclusive: 39.8 µM [inhibitor, single point] | 
65 | O=C(O)c1ccc(Nc2nc3ccccc3n3cnnc23)cc1 |  | inactive: -8.04%
